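How tested: cells in 96-well plates exposed to compound for 48 hours at five concentrations. At the GI50, growth is halved.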 Activity calls are given as the source filed them. Rule as the data show it: active = GI50 up to about 1.1 µM and inactive = higher.

This assay relates to NCI-H322M. Nature of the assay: inhibition of tumour cell growth, NCI panel, 48 h.
`O=C1c2ccccc2C(=O)c2c(NCCCNCCO)ccc(NCCCNCCO)c21`: the GI50 is inactive: 6.67 µM.
Next, `CC1=CC(C/C(C)=C/COc2ccc3ccc(=O)oc3c2)OC1=O` (centres undefined): inactive: > 100 µM; `COc1cc(C2C3=C(COC3=O)Oc3cc4c(cc32)OCO4)cc(OC)c1OC(C)=O` (centres undefined): active: 0.0262 µM.
On to `Nc1nc(Cl)cc(NCCCCCCCCNc2cc(Cl)nc(N)n2)n1`, for which the GI50 was inactive: 3.66 µM.
For the molecule `CN1Cc2ccccc2S(=O)(=O)n2cccc2C1=O`, the GI50 is inactive: > 100 µM.
For the molecule `COc1ccc2c(O)c3[n+](cc2c1OC)CCc1cc2c(cc1-3)OCO2`, the GI50 is inactive: > 100 µM.
Next, `CN(C)CCNC(=O)c1cccc2c1nc(-c1ccccc1)c1ccccc12`: inactive: 4.92 µM.
Consider `FC(F)(F)c1ccccc1C1SCc2nc3ccccc3n21` (centres undefined), for which the GI50 is inactive: 97.7 µM.
Regarding `CC(O)c1nc(C#N)c(N)o1` (centres undefined), the GI50 was inactive: > 100 µM.
As to `CCCCC(CC)C(=O)Oc1ccc(C(=O)c2ccccc2)c(O)c1` (centres undefined), the GI50 is inactive: 64.4 µM.
Consider `CCc1cccc(C)c1NC(=O)CC1C(=O)Nc2ccccc2[S+]1[O-]` (centres undefined), for which the GI50 was inactive: 66.2 µM.
Next, `Cn1c2ccc([N+](=O)[O-])cc2c(=O)c2c(O)cc(O)cc21`: inactive: > 100 µM; `CCOP(=O)(/C=C/n1cc(C)c(=O)[nH]c1=O)OCC`: inactive: > 100 µM.
Next, `NC(=O)c1c(-c2ccccc2)c(-c2ccccc2)cc2c(=O)c3ccccc3[nH]c12`: inactive: 30.9 µM; `O=C1c2ccccc2C2(O)c3cc4ccccc4cc3OC12O` (centres undefined): inactive: > 100 µM; `C[C@]12[C@@H]3CC[C@H]1[C@@H](O)C(=O)N2CC3`: inactive: > 100 µM.
Turning to `COc1ccc2nc3n(c2c1)C(c1c(Cl)cccc1Cl)SC3` (centres undefined), the GI50 was inactive: > 100 µM.
For `COc1ccc2c(C)cc(=O)oc2c1OC`, the GI50 was inactive: > 100 µM.
`CCOC(=O)CC(=O)Nc1c(C(=O)OCC)sc2nc(SC)nc(Nc3ccc(OC)c(OC)c3)c12`: the GI50 was active: 0.0791 µM.
Next, `CC(=O)C1C(=O)C(=O)N(c2ccccc2N2C(=O)C(=O)C(C(C)=O)C2=O)C1=O` (centres undefined): inactive: > 100 µM; `O=C(CCCl)NN=C1NCCCN1`: inactive: > 100 µM; `Cc1cc(C)c(-n2c(-c3ccccc3)cs/c2=N\N=C2C=C(C(C)(C)C)C(=O)C(C(C)(C)C)=C2)c(C)c1`: inactive: > 100 µM.
For `O=S(=O)(/C=C/CS(=O)(=O)c1ccccc1)c1ccccc1`, the GI50 is inactive: 25.8 µM.
Next, `c1ccc(Nc2nnc(Cn3ccc4ccccc43)s2)cc1`: inactive: > 100 µM.
Next, `CN(Cc1c2ccccc2cc2ccccc12)S(=O)(=O)c1ccc(-c2c3nc(c(-c4ccc(S(=O)(=O)N(C)Cc5c6ccccc6cc6ccccc56)cc4)c4ccc([nH]4)c(-c4ccc(S(=O)(=O)N(C)Cc5c6ccccc6cc6ccccc56)cc4)c4nc(c(-c5ccc(S(=O)(=O)N(C)Cc6c7ccccc7cc7ccccc67)cc5)c5ccc2[nH]5)C=C4)C=C3)cc1`: inactive: > 100 µM.
Next, `O=C(NCc1ccncc1)C1COc2cc(-c3cc(=O)c4ccccc4o3)ccc2O1` (centres undefined): inactive: > 100 µM; `COC(=O)C1=C(O)c2cc(OC)c(OC)cc2C(c2ccc(OC)c(OC)c2)C1` (centres undefined): inactive: > 100 µM; `CC(C)c1ccc(/C=C2\CSCC3=C2N=C(S)NC3c2ccc(C(C)C)cc2)cc1` (centres undefined): inactive: > 100 µM.
Regarding `Cc1ccc(/C(=C\C(=O)C(=O)NC23CC4CC(CC(C4)C2)C3)Sc2ccccc2)cc1`, the GI50 is inactive: > 10 µM.
Next, `COc1cc([N+](=O)[O-])ccc1NC(=O)c1cccc([N+](=O)[O-])c1O`: inactive: 26.9 µM; `O=NN(CCCl)C(=O)N[C@H]1CC[C@H](CC(=O)O)CC1`: inactive: > 100 µM; `Cc1cc2nnn(C3CCCCO3)c2cc1C` (centres undefined): inactive: > 100 µM.
Consider `CCc1c(Cl)c(C)cc(O)c1Cl`, for which the GI50 is inactive: 24.7 µM.
As to `CC(=NNC(=S)Nc1ccc(C)cc1)c1cccc(C(C)=NNC(=S)Nc2ccc(C)cc2)n1`, the GI50 is inactive: 28.5 µM.
Regarding `COC(=O)/C(C#N)=C1\CCC(Nc2cccc(C(F)(F)F)c2)N1C` (centres undefined), the GI50 is inactive: > 100 µM.
In the case of `COc1ccc2c3c([nH]c2c1[N+](=O)[O-])C(C)=NCC3`, the GI50 was inactive: 28.5 µM.
As for `ClCCN(CCCl)c1ccc(CNCCCNCc2ccc(N(CCCl)CCCl)cc2)cc1`, the GI50 is inactive: 3.87 µM.
With `CCCC[C@@H]1CCN2C[C@@H](O)[C@@H](O)[C@@H]2[C@H]1O`, the GI50 is inactive: > 100 µM.
As for `COC(=O)CC(C)(N[S+]([O-])c1ccc(C)cc1)c1ccccc1` (centres undefined), the GI50 is inactive: > 100 µM.
Next, `O=C(O)CNC(=O)c1ccc2cc(C(=O)N3CC(CCl)c4ccc([N+](=O)[O-])cc43)[nH]c2c1` (centres undefined): inactive: > 100 µM; `CC(=O)/C(=C\c1ccco1)C(=O)Nc1ccccc1`: inactive: > 100 µM; `ClC[Si]12OCCN(CCO1)CCO2`: inactive: > 100 µM.
Turning to `COc1ccc2c(c1)CC[C@@H]1C2CC[C@]2(C)OC(=O)CCC12` (some centres undefined), the GI50 is inactive: 66.4 µM.
On to `CCn1c2ccccc2c(=O)c2c(OC)ccc(OC)c21`, for which the GI50 was inactive: 60.5 µM.
In the case of `[N-]=[N+]=CC(=O)C1CCN(c2ccccc2)C1=O` (centres undefined), the GI50 is inactive: > 10 µM.
On to `COc1cc2c(c(OC)c1OC)-c1ccc(SC)c(=O)cc1C(CC(=O)Oc1cccc([N+](=O)[O-])c1)C2` (centres undefined), for which the GI50 was active: 1.12 µM.
`O=C(CCc1ccccc1)ON1C(=S)NC(c2ccccc2)(c2ccccc2)C1=S`: the GI50 was inactive: 42.6 µM.
Next, `NCCCCCCn1c(-c2ccc(Br)cc2)cs/c1=N\c1ccccc1`: inactive: 13.1 µM; `CCCCC(=O)OC[n+]1cccc(-c2c(COC(=O)NC(C)C)c(COC(=O)NC(C)C)c3n2CCC3)c1`: inactive: > 76.9 µM.
Consider `O=c1c2ccccc2nc(Nc2cccc(Cl)c2)n1/N=C/C=C/c1ccccc1`, for which the GI50 was inactive: 78.9 µM.
For `O=[N+]([O-])c1ccc(Cl)c(CNc2ncnc3c2ncn3C2CCCCO2)c1` (centres undefined), the GI50 is inactive: > 100 µM.
On to `OCc1c[te]c(-c2ccccc2)c1`, for which the GI50 is inactive: > 100 µM.
As for `O=C(NC(Nc1ccc(F)c(Cl)c1)(C(F)(F)F)C(F)(F)F)C(C(F)(F)F)C(F)(F)F`, the GI50 was inactive: 42.8 µM.
For the molecule `CCOC(=O)c1cc2cc3c4c(c2oc1=O)CCCN4CCC3`, the GI50 is inactive: 41.5 µM.
Next, `COc1cc(C2c3cc4c(cc3OC3(OC)COC(=O)C23)OCO4)cc(OC)c1OC(C)=O` (centres undefined): inactive: 1.71 µM.
`OC1[C@H]([C@H]2CCCC[C@@H]2O)CCC[C@@H]1[C@@H]1CCCC[C@H]1O` (some centres undefined): the GI50 is inactive: > 100 µM.
Turning to `Nc1ccc(S(=O)(=O)Nc2ccc(Nc3c4ccccc4nc4ccccc34)cc2)cc1`, the GI50 is inactive: 3.9 µM.
`CCN(CC)CCC(=O)/C=C/c1ccc(Cl)c(Cl)c1`: the GI50 was inactive: > 10 µM.
Regarding `Cc1c2cc[n+](C)cc2c(C)c2c1[nH]c1ccc(OC(C)(C)C)cc12`, the GI50 was inactive: > 100 µM.
